T1: intermediate-affinity hIL-2 receptor (IL-2Rβγ) on TF1+IL-2Rβ cells (human, UniProt P14784 27-551; P31785 23-369)
T1 sequence 1: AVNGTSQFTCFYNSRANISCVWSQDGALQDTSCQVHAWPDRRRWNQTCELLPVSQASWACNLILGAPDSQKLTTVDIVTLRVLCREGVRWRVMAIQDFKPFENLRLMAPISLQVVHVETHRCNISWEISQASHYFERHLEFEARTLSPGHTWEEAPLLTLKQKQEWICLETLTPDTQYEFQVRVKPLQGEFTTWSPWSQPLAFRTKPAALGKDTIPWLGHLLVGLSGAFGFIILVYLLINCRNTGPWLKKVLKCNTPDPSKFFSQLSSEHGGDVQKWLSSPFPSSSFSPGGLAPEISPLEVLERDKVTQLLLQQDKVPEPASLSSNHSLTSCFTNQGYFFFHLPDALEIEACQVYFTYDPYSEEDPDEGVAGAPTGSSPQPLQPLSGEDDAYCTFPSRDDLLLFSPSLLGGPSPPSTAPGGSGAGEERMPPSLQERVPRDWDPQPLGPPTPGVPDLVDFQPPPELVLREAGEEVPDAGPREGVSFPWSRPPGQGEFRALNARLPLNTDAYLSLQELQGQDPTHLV
T1 sequence 2: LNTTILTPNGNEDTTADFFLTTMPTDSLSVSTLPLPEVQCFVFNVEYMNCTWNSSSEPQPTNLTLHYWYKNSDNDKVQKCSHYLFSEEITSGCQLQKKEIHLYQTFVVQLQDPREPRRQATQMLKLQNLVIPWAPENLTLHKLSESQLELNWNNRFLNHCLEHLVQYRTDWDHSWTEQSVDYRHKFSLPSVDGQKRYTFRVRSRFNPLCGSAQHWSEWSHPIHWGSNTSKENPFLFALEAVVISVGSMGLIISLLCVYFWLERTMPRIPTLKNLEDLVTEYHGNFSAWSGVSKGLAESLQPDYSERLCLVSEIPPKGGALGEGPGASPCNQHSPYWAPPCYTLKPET

T2: high-affinity hIL-2 receptor (IL-2Rαβγ) on NK-92 cells (human, UniProt P01589 22-272; P14784 27-551; P31785 23-369)
T2 sequence 1: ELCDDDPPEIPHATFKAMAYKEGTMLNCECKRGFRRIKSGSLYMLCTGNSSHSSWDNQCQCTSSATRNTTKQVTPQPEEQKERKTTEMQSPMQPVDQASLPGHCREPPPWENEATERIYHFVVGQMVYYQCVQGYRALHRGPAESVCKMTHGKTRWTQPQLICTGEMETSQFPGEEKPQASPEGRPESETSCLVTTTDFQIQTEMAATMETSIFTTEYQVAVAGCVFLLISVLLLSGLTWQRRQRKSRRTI
T2 sequence 2: T1 sequence 1
T2 sequence 3: T1 sequence 2

B1: 2H7-hIgG1-LAGA-df-hIL-2 (T3A/R38E/I92K/C125A) (other)
heavy: EVQLLESGGGLVQPGGSLRLSCAASGFTFKDYCMTWVRQAPGKGLEWVSAIVYSGGSTYYADSVKGRFTISRDNSKNTLYLQMNNLRAEDTAVYYCAKYTRASYFYDAMDVWGQGTTVTVSS[not shown - human IgG1 constant region with L235A G237A (EU numbers)]APASSSTKKTQLQLEHLLLDLQMILNGINNYKNPKLTEMLTFKFYMPKKATELKHLQCLEEELKPLEEVLNLAQSKNFHLRPRDLISNINVKVLELKGSETTFMCEYADETATIVEFLNRWITFAQSIISTLT
light: EIVLTQSPGTLSLSPGERATLSCRASQSIGKSFLAWYQQKPGQAPRLLIYDASTRAADIPARFSGSGSGTDFTLTISSLEPEDFAVYYCQQYYDWPPLSFGGGTKVEIKRTVAAPSVFIFPPSDEQLKSGTASVVCLLNNFYPREAKVQWKVDNALQSGNSQESVTEQDSKDSTYSLSSTLTLSKADYEKHKVYACEVTHQGLSSPVTKSFNRGEC
notes: antibody-hIL-2 fusion; also called 2H7-hIgG1-LAGA-hIL-2 (T3A/R38E/192K/C125A)
B2: 2H7-hIgG4-LAGA-df-hIL-2 (T3A/R38E/D84K/C125A) (other)
heavy: EVQLLESGGGLVQPGGSLRLSCAASGFTFKDYCMTWVRQAPGKGLEWVSAIVYSGGSTYYADSVKGRFTISRDNSKNTLYLQMNNLRAEDTAVYYCAKYTRASYFYDAMDVWGQGTTVTVSSASTKGPSVFPLAPCSRSTSESTAALGCLVKDYFPEPVTVSWNSGALTSGVHTFPAVLQSSGLYSLSSVVTVPSSSLGTKTYTCNVDHKPSNTKVDKRV[not shown - human IgG4 Fc with S228P L235A G237A (EU numbers)]APASSSTKKTQLQLEHLLLDLQMILNGINNYKNPKLTEMLTFKFYMPKKATELKHLQCLEEELKPLEEVLNLAQSKNFHLRPRKLISNINVIVLELKGSETTFMCEYADETATIVEFLNRWITFAQSIISTLT
light: B1 light
notes: antibody-hIL-2 fusion
B3: 2H7-hIgG4-LE-df-hIL-2 (T3A/R38E/D84K/C125A) (other)
heavy: EVQLLESGGGLVQPGGSLRLSCAASGFTFKDYCMTWVRQAPGKGLEWVSAIVYSGGSTYYADSVKGRFTISRDNSKNTLYLQMNNLRAEDTAVYYCAKYTRASYFYDAMDVWGQGTTVTVSSASTKGPSVFPLAPCSRSTSESTAALGCLVKDYFPEPVTVSWNSGALTSGVHTFPAVLQSSGLYSLSSVVTVPSSSLGTKTYTCNVDHKPSNTKVDKRV[not shown - human IgG4 Fc with changes]APASSSTKKTQLQLEHLLLDLQMILNGINNYKNPKLTEMLTFKFYMPKKATELKHLQCLEEELKPLEEVLNLAQSKNFHLRPRKLISNINVIVLELKGSETTFMCEYADETATIVEFLNRWITFAQSIISTLT
light: B1 light
notes: antibody-hIL-2 fusion; also called 2H7-hIgG4-LE-hIL-2 (T3A/R38E/D84K/C125A)
B4: 2H7-hIgG1-df-hIL-2 (T3A/D20A/R38E/C125A) (other)
heavy: EVQLLESGGGLVQPGGSLRLSCAASGFTFKDYCMTWVRQAPGKGLEWVSAIVYSGGSTYYADSVKGRFTISRDNSKNTLYLQMNNLRAEDTAVYYCAKYTRASYFYDAMDVWGQGTTVTVSS[not shown - human IgG1 constant region]APASSSTKKTQLQLEHLLLALQMILNGINNYKNPKLTEMLTFKFYMPKKATELKHLQCLEEELKPLEEVLNLAQSKNFHLRPRDLISNINVIVLELKGSETTFMCEYADETATIVEFLNRWITFAQSIISTLT
light: B1 light
B5: 2H7-hIgG1-LE-df-hIL-2 (T3A/D20A/R38E/C125A) (other)
heavy: EVQLLESGGGLVQPGGSLRLSCAASGFTFKDYCMTWVRQAPGKGLEWVSAIVYSGGSTYYADSVKGRFTISRDNSKNTLYLQMNNLRAEDTAVYYCAKYTRASYFYDAMDVWGQGTTVTVSS[not shown - human IgG1 constant region with changes]APASSSTKKTQLQLEHLLLALQMILNGINNYKNPKLTEMLTFKFYMPKKATELKHLQCLEEELKPLEEVLNLAQSKNFHLRPRDLISNINVIVLELKGSETTFMCEYADETATIVEFLNRWITFAQSIISTLT
light: B1 light
B6: 2H7-hIgG1-LE-df-hIL-2 (T3A/R38E/D84K/C125A) (other)
heavy: EVQLLESGGGLVQPGGSLRLSCAASGFTFKDYCMTWVRQAPGKGLEWVSAIVYSGGSTYYADSVKGRFTISRDNSKNTLYLQMNNLRAEDTAVYYCAKYTRASYFYDAMDVWGQGTTVTVSS[not shown - human IgG1 constant region with changes]APASSSTKKTQLQLEHLLLDLQMILNGINNYKNPKLTEMLTFKFYMPKKATELKHLQCLEEELKPLEEVLNLAQSKNFHLRPRKLISNINVIVLELKGSETTFMCEYADETATIVEFLNRWITFAQSIISTLT
light: B1 light
B7: 2H7-hIgG4-df-hIL-2 (T3A/R38E/D84K/C125A) (other)
heavy: EVQLLESGGGLVQPGGSLRLSCAASGFTFKDYCMTWVRQAPGKGLEWVSAIVYSGGSTYYADSVKGRFTISRDNSKNTLYLQMNNLRAEDTAVYYCAKYTRASYFYDAMDVWGQGTTVTVSSASTKGPSVFPLAPCSRSTSESTAALGCLVKDYFPEPVTVSWNSGALTSGVHTFPAVLQSSGLYSLSSVVTVPSSSLGTKTYTCNVDHKPSNTKVDKRV[not shown - human IgG4 Fc with S228P (EU numbers)]APASSSTKKTQLQLEHLLLDLQMILNGINNYKNPKLTEMLTFKFYMPKKATELKHLQCLEEELKPLEEVLNLAQSKNFHLRPRKLISNINVIVLELKGSETTFMCEYADETATIVEFLNRWITFAQSIISTLT
light: B1 light
B8: 2H7-hIgG1-df-hIL-2 (T3A/R38E/I92K/C125A) (other)
heavy: EVQLLESGGGLVQPGGSLRLSCAASGFTFKDYCMTWVRQAPGKGLEWVSAIVYSGGSTYYADSVKGRFTISRDNSKNTLYLQMNNLRAEDTAVYYCAKYTRASYFYDAMDVWGQGTTVTVSS[not shown - human IgG1 constant region]APASSSTKKTQLQLEHLLLDLQMILNGINNYKNPKLTEMLTFKFYMPKKATELKHLQCLEEELKPLEEVLNLAQSKNFHLRPRDLISNINVKVLELKGSETTFMCEYADETATIVEFLNRWITFAQSIISTLT
light: B1 light
B9: 2H7-hIgG1-LE-df-hIL-2 (T3A/R38E/I92K/C125A) (other)
heavy: EVQLLESGGGLVQPGGSLRLSCAASGFTFKDYCMTWVRQAPGKGLEWVSAIVYSGGSTYYADSVKGRFTISRDNSKNTLYLQMNNLRAEDTAVYYCAKYTRASYFYDAMDVWGQGTTVTVSS[not shown - human IgG1 constant region with changes]APASSSTKKTQLQLEHLLLDLQMILNGINNYKNPKLTEMLTFKFYMPKKATELKHLQCLEEELKPLEEVLNLAQSKNFHLRPRDLISNINVKVLELKGSETTFMCEYADETATIVEFLNRWITFAQSIISTLT
light: B1 light
B10: 2H7-hIgG1-LAGA-df-hIL2 (T3A/R38E/D84F/C125A) (other)
heavy: EVQLLESGGGLVQPGGSLRLSCAASGFTFKDYCMTWVRQAPGKGLEWVSAIVYSGGSTYYADSVKGRFTISRDNSKNTLYLQMNNLRAEDTAVYYCAKYTRASYFYDAMDVWGQGTTVTVSS[not shown - human IgG1 constant region with L235A G237A (EU numbers)]APASSSTKKTQLQLEHLLLDLQMILNGINNYKNPKLTEMLTFKFYMPKKATELKHLQCLEEELKPLEEVLNLAQSKNFHLRPRFLISNINVIVLELKGSETTFMCEYADETATIVEFLNRWITFAQSIISTLT
light: B1 light
B11: 2H7-hIgG1-LAGA-df-hIL2 (T3A/R38E/I92R/C125A) (other)
heavy: EVQLLESGGGLVQPGGSLRLSCAASGFTFKDYCMTWVRQAPGKGLEWVSAIVYSGGSTYYADSVKGRFTISRDNSKNTLYLQMNNLRAEDTAVYYCAKYTRASYFYDAMDVWGQGTTVTVSS[not shown - human IgG1 constant region with L235A G237A (EU numbers)]APASSSTKKTQLQLEHLLLDLQMILNGINNYKNPKLTEMLTFKFYMPKKATELKHLQCLEEELKPLEEVLNLAQSKNFHLRPRDLISNINVRVLELKGSETTFMCEYADETATIVEFLNRWITFAQSIISTLT
light: B1 light
B12: 2H7-hIgG1-LAGA-df-hIL2 (T3A/R38E/I92E/C125A) (other)
heavy: EVQLLESGGGLVQPGGSLRLSCAASGFTFKDYCMTWVRQAPGKGLEWVSAIVYSGGSTYYADSVKGRFTISRDNSKNTLYLQMNNLRAEDTAVYYCAKYTRASYFYDAMDVWGQGTTVTVSS[not shown - human IgG1 constant region with L235A G237A (EU numbers)]APASSSTKKTQLQLEHLLLDLQMILNGINNYKNPKLTEMLTFKFYMPKKATELKHLQCLEEELKPLEEVLNLAQSKNFHLRPRDLISNINVEVLELKGSETTFMCEYADETATIVEFLNRWITFAQSIISTLT
light: B1 light

target: T3, recombinant His-tagged human PD-1 (Acro Biosystems) (human, UniProt Q15116 partial chain); test: SPR Carterra LSA;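 also: antibodies or fusion proteins amine-coupled on an HC30M chip, soluble His-tagged human or cynomolgus PD-1 titrated over them, non-regenerative kinetics, constants fitted from titration curves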
T3 construct: His-tagged; also called hPD-1
T3 sequence (Q15116 25-167 limits assumed): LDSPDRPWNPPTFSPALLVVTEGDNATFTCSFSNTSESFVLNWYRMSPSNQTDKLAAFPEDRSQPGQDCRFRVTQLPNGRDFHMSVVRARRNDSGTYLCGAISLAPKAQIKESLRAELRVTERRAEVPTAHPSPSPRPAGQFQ

Row | Binder | Kd | koff | kon
1 | B1 | 4.3 nM | 0.00078 s⁻¹ | 180000 M⁻¹ s⁻¹
2 | B2 | 4.4 nM | 0.00073 s⁻¹ | 170000 M⁻¹ s⁻¹
3 | B3 | 4.7 nM | 0.00094 s⁻¹ | 200000 M⁻¹ s⁻¹

target: T4, recombinant His-tagged cynomolgus PD-1 (Acro Biosystems) (cynomolgus, UniProt B0LAJ3 25-170); test: SPR Carterra LSA;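 also: antibodies or fusion proteins amine-coupled on an HC30M chip, soluble His-tagged human or cynomolgus PD-1 titrated over them, non-regenerative kinetics, constants fitted from titration curves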
T4 construct: His-tagged; also called Cyno PD-1; not shown: His tag (and any linker) of the Acro Biosystems product
T4 sequence (B0LAJ3 entry or part of it limits assumed): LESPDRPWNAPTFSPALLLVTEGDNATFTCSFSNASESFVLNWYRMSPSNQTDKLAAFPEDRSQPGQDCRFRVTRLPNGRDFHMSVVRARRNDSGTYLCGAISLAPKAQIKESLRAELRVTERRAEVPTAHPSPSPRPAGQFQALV

Row | Binder | Kd | koff | kon
4 | B1 | 11 nM | 0.00097 s⁻¹ | 91000 M⁻¹ s⁻¹
5 | B2 | 13 nM | 0.001 s⁻¹ | 81000 M⁻¹ s⁻¹
6 | B3 | 8.2 nM | 0.0011 s⁻¹ | 130000 M⁻¹ s⁻¹

target: T1, intermediate-affinity hIL-2 receptor …; test: cell-based or functional assay

Row | Binder | Fold change from rhIL-2 (TF1 + IL-2Rβ) | Agonistic Activity (TF1 + IL-2Rβ)
7 | B4 | ~2060 fold | 
8 | B5 | ~6730 fold | 80%
9 | B6 | ~517 fold | 
10 | B7 | > 10000 fold | 
11 | B8 | 160 fold | 
12 | B9 | 656 fold | 
13 | B10 | 3920 fold | 
14 | B11 | 89 fold | 
15 | B12 | 53 fold | 

target: T2, high-affinity hIL-2 receptor (IL-2Rαβγ) …; test: cell-based or functional assay

Row | Binder | Fold change from rhIL-2 (NK-92) | Agonistic Activity (NK-92)
16 | B4 | ~4840 fold | 
17 | B5 | ~7730 fold | 
18 | B3 |  | 90%
19 | B6 | 1270 fold | 90%
20 | B7 | 1600 fold | 90%
21 | B8 | 370 fold | 
22 | B9 | 319 fold | 
23 | B10 | 6200 fold | 
24 | B11 | 75 fold | 
25 | B12 | 118 fold | 

target: T1, intermediate-affinity hIL-2 receptor …; test: cell-based or functional assay; remark: another data set of the same source

Row | Binder | Fold decrease from rhIL-2 (TF1 + IL-2Rβ + hPD-1)
26 | B4 | ~1 fold
27 | B5 | 0 fold
28 | B6 | ~1 fold
29 | B7 | ~1 fold
30 | B8 | ~1 fold
31 | B9 | ~1 fold
32 | B10 | ~0 fold
33 | B11 | ~0 fold
34 | B12 | ~2 fold
